Assay results from a compilation of properties of binary mixtures (doi:10.1016/0040-6031(70)80012-0).
Some of these densities may be calculated back from excess volumes.

Assay: xn = mol fraction of the nth substance listed
Details: 101 kPa

Work on `CCC[N+]1(C)CCCC1.[Br-]` + O yielded a mass density (303.15 K, x2 = 0.7618) of 1222.5 kg/m3, a mass density (303.15 K, x2 = 0.8315) of 1193.5 kg/m3 and a mass density (323.15 K, x2 = 0.8315) of 1179.5 kg/m3. The mass density (343.15 K, x2 = 0.7862) was 1185.5 kg/m3.

`CCCCC[N+]1(C)CCCC1.[Br-]` + O gave a mass density (333.15 K, x2 = 0.9687) of 1034.5 kg/m3 and a mass density (338.15 K, x2 = 0.5903) of 1169.5 kg/m3.

`CCCC[N+]1(C)CCCC1.[Br-]` + O gave a mass density (308.15 K, x2 = 0.72) of 1201.5 kg/m3, a mass density (308.15 K, x2 = 0.9439) of 1087.5 kg/m3 and a mass density (313.15 K, x2 = 0.8717) of 1145.5 kg/m3. For the same compound, the mass density (338.15 K, x2 = 0.72) was 1180.5 kg/m3 and the mass density (343.15 K, x2 = 0.8717) was 1123.5 kg/m3.
